The source of these data is paper PMC4336329 (PLoS ONE, 2015).

Among all 310,000 compounds or so, about 2,200 (0.71%) showed an effect of 50% or more. Effects have a minus sign here. The list shows a part of the results.

Chain of human ether-à-go-go-related gene (hERG) potassium channel (Q12809 whole entry, looked up): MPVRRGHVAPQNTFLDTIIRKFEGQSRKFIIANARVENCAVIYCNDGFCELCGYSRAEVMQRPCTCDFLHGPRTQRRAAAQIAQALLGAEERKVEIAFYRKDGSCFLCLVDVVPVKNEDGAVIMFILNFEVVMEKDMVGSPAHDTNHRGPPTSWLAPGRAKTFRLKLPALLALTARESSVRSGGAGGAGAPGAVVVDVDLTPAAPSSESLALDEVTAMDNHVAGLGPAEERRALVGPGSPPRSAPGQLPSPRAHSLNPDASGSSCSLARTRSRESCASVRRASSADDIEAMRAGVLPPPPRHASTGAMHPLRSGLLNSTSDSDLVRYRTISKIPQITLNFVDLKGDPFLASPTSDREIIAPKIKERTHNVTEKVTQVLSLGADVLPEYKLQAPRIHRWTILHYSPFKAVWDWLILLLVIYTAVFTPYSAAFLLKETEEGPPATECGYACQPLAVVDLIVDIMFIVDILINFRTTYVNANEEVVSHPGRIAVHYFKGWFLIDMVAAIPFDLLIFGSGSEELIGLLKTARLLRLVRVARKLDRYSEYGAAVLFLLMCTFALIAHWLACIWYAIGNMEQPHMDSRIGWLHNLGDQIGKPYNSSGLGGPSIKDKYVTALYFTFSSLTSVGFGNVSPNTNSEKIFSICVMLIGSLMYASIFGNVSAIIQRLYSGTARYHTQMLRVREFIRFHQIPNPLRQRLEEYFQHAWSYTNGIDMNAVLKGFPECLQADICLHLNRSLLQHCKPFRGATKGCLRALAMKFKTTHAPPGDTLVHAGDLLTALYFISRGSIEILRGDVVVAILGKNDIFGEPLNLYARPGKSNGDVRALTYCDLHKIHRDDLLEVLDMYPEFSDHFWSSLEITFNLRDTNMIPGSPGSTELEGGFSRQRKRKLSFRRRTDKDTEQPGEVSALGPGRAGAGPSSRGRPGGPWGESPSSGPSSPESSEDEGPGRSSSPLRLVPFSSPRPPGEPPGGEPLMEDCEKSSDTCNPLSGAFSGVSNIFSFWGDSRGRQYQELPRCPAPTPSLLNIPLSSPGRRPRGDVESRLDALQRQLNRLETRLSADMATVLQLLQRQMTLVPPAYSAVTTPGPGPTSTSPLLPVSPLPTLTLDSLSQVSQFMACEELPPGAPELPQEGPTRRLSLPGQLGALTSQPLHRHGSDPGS

This experiment has as its target human ether-à-go-go-related gene (hERG) potassium channel (human, UniProt Q12809). The experiment can be described thus: primary screen, population patch clamp on CHO cells stably expressing hERG.
Turning to `CCOc1cc(C(=O)N=c2sccn2C)cc(Br)c1OC`, the “hERG current change (%, negative = inhibition) at 1uM” value was found to be 14.1%.

Consider `COc1ccc(NC(=O)NC2CCCCC2C)cc1` (centres unmarked), for which the “hERG current change (%, negative = inhibition) at 1uM” value was found to be 9.34%.

For `Cc1ccc(C(=O)N/N=C\c2c(C)nn(-c3ccccc3)c2Cl)cn1`, the “hERG current change (%, negative = inhibition) at 1uM” value was 2.32%.

As to `Cc1cc(C)cc(N2C(=O)N(c3ccccc3C)C3CS(=O)(=O)CC32)c1` (centres unmarked), the “hERG current change (%, negative = inhibition) at 1uM” value came out at 17.3%.

For `N#Cc1cnc(Sc2ccccc2)nc1`, the “hERG current change (%, negative = inhibition) at 1uM” value worked out at 5.13%.

Consider `Nc1c(C(=O)N/N=C/c2ccc(OCc3ccccc3)cc2)cnn1-c1ccccc1`, for which the “hERG current change (%, negative = inhibition) at 1uM” value is 9.13%.

As for `CS(=O)(=O)Oc1ccc(/C=N/NC(=O)c2ccncc2)cc1`, the “hERG current change (%, negative = inhibition) at 1uM” value came to 7.51%.

For `O=[N+]([O-])c1cnc[nH]1`, the “hERG current change (%, negative = inhibition) at 1uM” value was 13.5%.

As for `C=CCO/N=C(/C)c1ccc(Oc2cnccn2)cc1`, the “hERG current change (%, negative = inhibition) at 1uM” value is given as -21%.

On to `O=C(Nc1ccc2oc(-c3ccccc3F)nc2c1)c1ccco1`, for which the “hERG current change (%, negative = inhibition) at 1uM” value was found to be 5.48%.

On to `COC(=O)c1cc(Br)c(=O)n(CCc2ccccc2)c1`, for which the “hERG current change (%, negative = inhibition) at 1uM” value is 3.82%.

In the case of `CCN(CC)CCn1c2c(c(SCC(=O)Nc3nc4ccccc4s3)nc1=O)CCC2`, the “hERG current change (%, negative = inhibition) at 1uM” value is -22.8%.

As for `Cc1c(C(=O)Nc2nccs2)oc2ccc(F)cc12`, the “hERG current change (%, negative = inhibition) at 1uM” value stood at 14.5%.

Turning to `Cc1cccn2c(=O)c3cc(C(=O)NCCc4ccccc4)sc3nc12`, the “hERG current change (%, negative = inhibition) at 1uM” value turned out to be 0.776%.

As to `O=C(CCCOc1cccc(Br)c1)NC1CCC(O)CC1` (centres unmarked), the “hERG current change (%, negative = inhibition) at 1uM” value is 8.24%.

Consider `CC(=O)c1ccc(N2CCN(C(=O)c3ccc4c(c3)OCO4)CC2)cc1`, for which the “hERG current change (%, negative = inhibition) at 1uM” value is given as -14.4%.

Consider `Cc1cc(C(=O)c2cnc(/N=C/N(C)C)s2)cc(C)c1O`, for which the “hERG current change (%, negative = inhibition) at 1uM” value is reported as 5.23%.

Consider `COc1ccc(S(=O)(=O)N2CCOC23CCN(S(=O)(=O)c2ccccc2)CC3)cc1`, for which the “hERG current change (%, negative = inhibition) at 1uM” value is 8.63%.

Regarding `CCN(CC)CC(=O)Nc1cccc2c1C(=O)c1ccccc1C2=O`, the “hERG current change (%, negative = inhibition) at 1uM” value was 18.7%.

In the case of `Cc1cc(C)c(OCC(=O)Nc2ccc(NC(=O)c3ccco3)cc2)c([N+](=O)[O-])c1`, the “hERG current change (%, negative = inhibition) at 1uM” value was 14.8%.

For `O=C(Nc1nnc(CC(=O)N2CCOCC2)s1)c1cccs1`, the “hERG current change (%, negative = inhibition) at 1uM” value is reported as 7.54%.

For `O=C(O)C(=O)O.O=C(c1ccccc1F)N1CCN(Cc2cccc(Cl)c2)CC1`, the “hERG current change (%, negative = inhibition) at 1uM” value was -6.08%.

On to `O=C(CCS(=O)(=O)c1cccc2nonc12)N1CC(=O)N(CCc2ccccc2)C(=O)C1`, for which the “hERG current change (%, negative = inhibition) at 1uM” value is listed as 7.63%.

As for `N#CCSc1nc2ccc(N3CCCCC3)cc2c(=O)n1Cc1ccccc1`, the “hERG current change (%, negative = inhibition) at 1uM” value is recorded as 13.7%.

Take `COc1cccc(C(=O)C[n+]2ccccc2/C=N/O)c1.[Br-]`: the “hERG current change (%, negative = inhibition) at 1uM” value was 9.55%.

As for `O=C(CSc1ncccc1-c1nc2ccccc2[nH]1)Nc1ccc2c(c1)OCCO2`, the “hERG current change (%, negative = inhibition) at 1uM” value is on record as -3.2%.

On to `CNC(C)C#Cc1ccc2c(=O)c3cc(C)c(C)cc3oc2c1` (centres unmarked), for which the “hERG current change (%, negative = inhibition) at 1uM” value worked out at 8.09%.

With `Cc1ccc(NS(=O)(=O)c2ccc3c(c2)CC(=O)N3)c(C)c1`, the “hERG current change (%, negative = inhibition) at 1uM” value was -2.48%.

For the compound `CC(C)(C)c1csc(NC(=O)Cn2c(=O)oc3ccccc32)n1`, the “hERG current change (%, negative = inhibition) at 1uM” value was -5.9%.

`CN(CC(=O)NC1CCN(Cc2ccccc2)CC1)S(=O)(=O)c1ccc(Br)s1`: the “hERG current change (%, negative = inhibition) at 1uM” value is given as 9.14%.

Regarding `O=C(O)COCC(=O)NCc1nc(-c2ccc(C(F)(F)F)cc2)no1`, the “hERG current change (%, negative = inhibition) at 1uM” value stood at 16.4%.

Regarding `[N-]=[N+]=NCC/C=C\C1NS(=O)(=O)OCC1O` (centres unmarked), the “hERG current change (%, negative = inhibition) at 1uM” value is recorded as 10.6%.

`COC(=O)C1=C(C)N(c2ccc(S(N)(=O)=O)cc2)C(=O)C1`: the “hERG current change (%, negative = inhibition) at 1uM” value was 6.08%.

Turning to `Cc1ccc(CNC(=O)CN2CCN(c3ccc(F)cc3)CC2)cc1`, the “hERG current change (%, negative = inhibition) at 1uM” value was -8.38%.

Regarding `CN(CC(=O)Nc1ccc(F)c(F)c1F)C(=O)CC1OC(=O)c2ccccc21` (centres unmarked), the “hERG current change (%, negative = inhibition) at 1uM” value was -5.19%.

`COc1cccc(CN2CC(C(=O)NCCCn3ccnc3C)CCC2=O)c1` (centres unmarked): the “hERG current change (%, negative = inhibition) at 1uM” value is listed as 16.7%.

Take `O=C(NC1CC1)c1sccc1-n1cccc1`: the “hERG current change (%, negative = inhibition) at 1uM” value is given as 3.85%.

As for `CCC(=O)Nc1ccc(C(=O)NCc2ccccn2)cc1`, the “hERG current change (%, negative = inhibition) at 1uM” value came to 12.7%.

Regarding `Cc1cc(F)ccc1S(=O)(=O)N(C(=O)c1ccncc1)c1ccc(OC(=O)c2ccncc2)cc1`, the “hERG current change (%, negative = inhibition) at 1uM” value is listed as 5.64%.

For `CCOc1ccc(C(=O)C(C)OC(=O)Cn2c(C)csc2=O)cc1` (centres unmarked), the “hERG current change (%, negative = inhibition) at 1uM” value is recorded as -1.43%.

For `CCCn1nc(C(=O)OCC(=O)c2c(N)n(C)c(=O)n(C)c2=O)c2ccccc2c1=O`, the “hERG current change (%, negative = inhibition) at 1uM” value came to 7.06%.

As for `O=C(Nc1ccc2nn(-c3ccc(F)cc3)nc2c1)c1cccnc1`, the “hERG current change (%, negative = inhibition) at 1uM” value amounted to 13.3%.

For `O=C(CN(C(=O)Cn1nnc(-c2ccc(F)cc2)n1)C1CCCC1)NC1CCCC1`, the “hERG current change (%, negative = inhibition) at 1uM” value was 5.86%.

Regarding `O=C(COc1ccccc1Cl)N1CCCC1`, the “hERG current change (%, negative = inhibition) at 1uM” value was found to be 13.7%.
